Test results taken from the supplement of paper PMC12217912.
The list shows a part of the results. Sequences were assembled here from the parent chain. Values near 0.05 are background.

B1: TEV protease; numbered along this chain (parent)
chain: MGESLFKGPRDYNPISSSICHLTNESDGHTTSLYGIGFGPFIITNKHLFRRNNGTLVVQSLHGVFKVKDTTTLQQHLVDGRDMIIIRMPKDFPPFPQKLKFREPQREERICLVTTNFQTKSMSSMVSDTSCTFPSGDGIFWKHWIQTKDGQCGSPLVSTRDGFIVGIHSASNFTNTNNYFTSVPKNFMELLTNQEAQQWVSGWRLNADSVLWGGHKVFMVKPEEPFQPVKEATQL

Variants of: B1
Test: raw area under fraction-flipped curve 0-4 h after induction (AUC4h, not background-subtracted), DNA-recorder readout of cleavage of the substrate (dimensionless); higher = more cleavage of the substrate by the protease variant
Conditions: temperature: 34 °C; time window: 0-4 h after rhamnose induction
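Further: Bxb1 expression induced with 0.2% (w/v) L-rhamnose at OD600 near 0.5, cultures sampled hourly, flipped fraction per protease–substrate barcode pair counted by paired-end Illumina sequencing.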

| Variant | area with substrate ENLEFQS | area with substrate ENLFFQS | area with substrate ENLGFQS | area with substrate ENLHFQS | area with substrate ENLIFQS | area with substrate ENLLFQS | area with substrate ENLNFQS | area with substrate ENLPFQS | area with substrate ENLRFQS | area with substrate ENLSFQS |
| --- | --- | --- | --- | --- | --- | --- | --- | --- | --- | --- |
| MGESLFKGPRDYNPISSSICHLTNESDGHTTSLYGIGFGPFIITNKHLFRRNNGTLVVQSLHGVFKVKDTTTLQQHLVDGRDMIIIRMPKDFPPFPQKLKFREPQREERICLVHTNFQTKSMSSMVSDTSCTFPSGDGIFWKHWIQTKDGQCGSPLVSTRDGFIVGIHSASNFTNTNNYFTSVPKNFMELLTNQEAQQWVSGWRLNADSVLWGGHKVFMVKPEEPFQPVKEATQL [T114H] | 0.061 | 0.0698 | 0.101 | 0.101 | 0.088 | 0.0745 | 0.0436 | 0.0589 | 0.0484 | 0.0614 |
| MGESLFKGPRDYNPISSSICHLTNESDGHTTSLYGIGFGPFIITNKHLFRRNNGTLVVQSLHGVFKVKDTTTLQQHLVDGRDMIIIRMPKDFPPFPQKLKFRESQREERICLVTTNFQTKSMSSMVSDTSCTFPSGDGIFWKHWIQTKDGQCGSPLVSTRDGFIVGIHSASNFTNTNNYFTSVPKNFMELLTNQEAQQWVSGWRLNADSVLWGGHKVFMVKPEEPFQPVKEATQL [P104S] | 0.0478 | 0.0453 | – | 0.0548 | 0.0621 | 0.0546 | – | 0.0313 | – | 0.0529 |
| MGESLFKGPRDYNPISSSICHLTNESDGHTTSLYGIGFGPFIITNKHLFRRNNGTLVVQSLHGVFKVKDTTTLQQHLVDGRDMIIIRMPKDFPPFPQKLKFREPQREERICLVTTNFQTKSMSSMVSDTSCTFPSGDGIFWKHWIQTKDGQCGSPLVSTRDGFIVGIHSASNFTNTNNYFTSVPKNFMELLTNQEAQQWVSGWRLNADSVLWGGHKVFMVKPEEPFQPVKEYTQL [A232Y] | – | 0.0933 | – | 0.0616 | 0.0928 | – | 0.0559 | 0.0512 | 0.0524 | 0.0443 |
| MGESLFKGPRDYNPISSSICHLTNESDGHTTSLYGIGFGPFIITNKHLFRRNNGTLVVQSLHGVFKVKDTTTLQQHLVDGRDMIIIRMPKDFPPFPQKLKFREPQREERICLVTTNFQTKSMSSMVSDTSCTFPSGDGIFWKHWIQTKDGQCGSPLVSTRDGFIVGIHSASNFTNTNNYFTSVPKNFMELLTNQEAQQWVSGWRLNADSVLWGGHCVFMVKPEEPFQPVKEATQL [K216C] | – | 0.0732 | – | – | – | – | 0.0726 | – | – | – |
| MGESLFKGPRDYNPISSSICHLTNESDGHTTSLYGIGFGPFIITNKHLFRRNNGTLVVQSLHGVFKVKDTTTLQQHLVDGRDMIIIRMPKDFPPFPQKLKFREPQREERICLVTTNFQTKSMSSMVSDTSCTFPSGDGIFWKHWIQTKDGQCGSPLVSTRDGFIVGIHSASNFTNTNNYFTSVPKNFMELLTNQEAQQWVSGWRLNADSVLWGGHTVFMVKPEEPFQPVKEATQL [K216T] | 0.0748 | 0.0691 | – | 0.0659 | 0.0803 | – | 0.076 | 0.0625 | 0.0717 | 0.0759 |
| MGESLFKGPRDYNPISSSICHLTNESDGHTTSLYGIGFGPFIITNKHLFRRNNGTLVVQSLHGVFKVKDTTTLQQHLVDGRDMIIIRMPKDFPPFPQKLKFREPQREERICLVTTNFQTKSMSSMVSDTSCTFPSGDGIFWKHWIQTKDGQCGSPLVSTRDGFIVGIHSASNFTNTNNYFTSVPKNFMELLTNQEAQQWVSGWRLNAHSVLWGGHKVFMVKPEEPFQPVKEATQL [D208H] | 0.0571 | – | – | – | – | – | – | – | 0.0775 | – |
| MGESLFKGPRDYNPISSSICHLTNESDGHTTSLYGIGFGPFIITNKHLFRRNNGTLVVQSLHGVFKVKDTTTLQQHLVDGRDMIINRMPKDFPPFPQKLKFREPQREERICLVTTNFQTKSMSSMVSDTSCTFPSGDGIFWKHWIQTKDGQCGSPLVSTRDGFIVGIHSASNFTNTNNYFTSVPKNFMELLTNQEAQQWVSGWRLNADSVLWGGHKVFMVKPEEPFQPVKEATQL [I86N] | – | 0.0629 | – | – | 0.0452 | – | – | – | – | 0.0317 |
| MGESLFKGPRDYNPISSSICHLTNESDGHTTSLYGIGFGPFIITNKHLFRRNNGTLVVQSLHGVFKVKDTTTLQQHLVDGRDMIIIRMPKDFPPFPQKLKFREPQREERICLVTTNFQTKSMSSMVSDTSCTFPSGDGIFWKHWIQTKDGQCGSPLVSTRDGFIVGIHSASNFTNTYNYFTSVPKNFMELLTNQEAQQWVSGWRLNADSVLWGGHKVFMVKPEEPFQPVKEATQL [N177Y] | 0.074 | 0.0731 | – | – | – | – | – | – | – | – |
| MGESLFKGPRDYNPISSSICHLTNESDGHTTSLYGIGFGPFIITNKHLFRRNNGTLVVQSLHGVFKVKDTTTLQQHLVDGRDMIIIRMPKDFPPFPQKLKFREPQREERECLVTTNFQTKSMSSMVSDTSCTFPSGDGIFWKHWIQTKDGQCGSPLVSTRDGFIVGIHSASNFTNTNNYFTSVPKNFMELLTNQEAQQWVSGWRLNADSVLWGGHKVFMVKPEEPFQPVKEATQL [I110E] | 0.0783 | – | – | – | – | – | – | – | – | – |
| MGESLFKGPRDYNPISSSICHLTNESDGHTTSLYGIGFGPFIITNKHLFRRNNGTLVVQSLHGVFKVKDTTTLQQHLVDGRDMIIIRMPKDFPPFPQKLKFREPQREERICLVTTNFQTKSMSSMVSDTSCTFPSGDGIFWKHWIQTKDGQCGSPLVSTRDGFIVGIHSASNFTNTNNYFTSVPKNFMELLTNQEAQQWVSGWRLNADSVLWGGAKVFMVKPEEPFQPVKEATQL [H215A] | 0.0605 | 0.061 | – | – | – | 0.0592 | 0.0742 | 0.062 | – | – |
| MGESLFKGPRDYNPISSSICHLTNESDGHTTSLYGIGFGPFIITNKHLFRRNNGTLVVQSLHGVFKVKDTTTLQQHLVDGRDMIIIRMPKDFPPFTQKLKFREPQREERICLVTTNFQTKSMSSMVSDTSCTFPSGDGIFWKHWIQTKDGQCGSPLVSTRDGFIVGIHSASNFTNTNNYFTSVPKNFMELLTNQEAQQWVSGWRLNADSVLWGGHKVFMVKPEEPFQPVKEATQL [P96T] | – | 0.0721 | – | – | 0.109 | – | – | – | – | 0.0612 |
| MGESLFKGPRDYNPISSSICHLTNESDGHTTSLYGIGFGPFIITNKHLFRRNNGTLVVQSLHGVFKVKDTTTLQQHLVDGRDMIIIRMPKDFPPFWQKLKFREPQREERICLVTTNFQTKSMSSMVSDTSCTFPSGDGIFWKHWIQTKDGQCGSPLVSTRDGFIVGIHSASNFTNTNNYFTSVPKNFMELLTNQEAQQWVSGWRLNADSVLWGGHKVFMVKPEEPFQPVKEATQL [P96W] | – | 0.0577 | – | – | 0.0775 | 0.0625 | 0.0606 | 0.0704 | 0.0717 | – |

Same assay, conditions: temperature: 34 °C; time window: 0-4 h after rhamnose induction

| Variant | area with substrate ENLVFQS | area with substrate ENLKFQS | area with substrate ENLMFQS | area with substrate ENLQFQS | area with substrate ENLTFQS | area with substrate ENLWFQS | area with substrate ENLDFQS |
| --- | --- | --- | --- | --- | --- | --- | --- |
| MGESLFKGPRDYNPISSSICHLTNESDGHTTSLYGIGFGPFIITNKHLFRRNNGTLVVQSLHGVFKVKDTTTLQQHLVDGRDMIIIRMPKDFPPFPQKLKFREPQREERICLVHTNFQTKSMSSMVSDTSCTFPSGDGIFWKHWIQTKDGQCGSPLVSTRDGFIVGIHSASNFTNTNNYFTSVPKNFMELLTNQEAQQWVSGWRLNADSVLWGGHKVFMVKPEEPFQPVKEATQL [T114H] | 0.0672 | – | – | – | – | – | – |
| MGESLFKGPRDYNPISSSICHLTNESDGHTTSLYGIGFGPFIITNKHLFRRNNGTLVVQSLHGVFKVKDTTTLQQHLVDGRDMIIIRMPKDFPPFPQKLKFRESQREERICLVTTNFQTKSMSSMVSDTSCTFPSGDGIFWKHWIQTKDGQCGSPLVSTRDGFIVGIHSASNFTNTNNYFTSVPKNFMELLTNQEAQQWVSGWRLNADSVLWGGHKVFMVKPEEPFQPVKEATQL [P104S] | – | 0.0613 | 0.0661 | 0.0435 | 0.0606 | 0.0555 | – |
| MGESLFKGPRDYNPISSSICHLTNESDGHTTSLYGIGFGPFIITNKHLFRRNNGTLVVQSLHGVFKVKDTTTLQQHLVDGRDMIIIRMPKDFPPFPQKLKFREPQREERICLVTTNFQTKSMSSMVSDTSCTFPSGDGIFWKHWIQTKDGQCGSPLVSTRDGFIVGIHSASNFTNTNNYFTSVPKNFMELLTNQEAQQWVSGWRLNADSVLWGGHKVFMVKPEEPFQPVKEYTQL [A232Y] | 0.0696 | 0.0525 | – | – | – | 0.071 | 0.0605 |
| MGESLFKGPRDYNPISSSICHLTNESDGHTTSLYGIGFGPFIITNKHLFRRNNGTLVVQSLHGVFKVKDTTTLQQHLVDGRDMIIIRMPKDFPPFPQKLKFREPQREERICLVTTNFQTKSMSSMVSDTSCTFPSGDGIFWKHWIQTKDGQCGSPLVSTRDGFIVGIHSASNFTNTNNYFTSVPKNFMELLTNQEAQQWVSGWRLNADSVLWGGHCVFMVKPEEPFQPVKEATQL [K216C] | – | – | – | 0.074 | – | – | 0.0529 |
| MGESLFKGPRDYNPISSSICHLTNESDGHTTSLYGIGFGPFIITNKHLFRRNNGTLVVQSLHGVFKVKDTTTLQQHLVDGRDMIIIRMPKDFPPFPQKLKFREPQREERICLVTTNFQTKSMSSMVSDTSCTFPSGDGIFWKHWIQTKDGQCGSPLVSTRDGFIVGIHSASNFTNTNNYFTSVPKNFMELLTNQEAQQWVSGWRLNADSVLWGGHTVFMVKPEEPFQPVKEATQL [K216T] | 0.0745 | 0.0717 | – | – | – | 0.0896 | 0.0762 |
| MGESLFKGPRDYNPISSSICHLTNESDGHTTSLYGIGFGPFIITNKHLFRRNNGTLVVQSLHGVFKVKDTTTLQQHLVDGRDMIIIRMPKDFPPFPQKLKFREPQREERICLVTTNFQTKSMSSMVSDTSCTFPSGDGIFWKHWIQTKDGQCGSPLVSTRDGFIVGIHSASNFTNTNNYFTSVPKNFMELLTNQEAQQWVSGWRLNAHSVLWGGHKVFMVKPEEPFQPVKEATQL [D208H] | – | 0.0545 | – | – | – | 0.0316 | – |
| MGESLFKGPRDYNPISSSICHLTNESDGHTTSLYGIGFGPFIITNKHLFRRNNGTLVVQSLHGVFKVKDTTTLQQHLVDGRDMIINRMPKDFPPFPQKLKFREPQREERICLVTTNFQTKSMSSMVSDTSCTFPSGDGIFWKHWIQTKDGQCGSPLVSTRDGFIVGIHSASNFTNTNNYFTSVPKNFMELLTNQEAQQWVSGWRLNADSVLWGGHKVFMVKPEEPFQPVKEATQL [I86N] | – | 0.0527 | – | – | – | 0.0415 | – |
| MGESLFKGPRDYNPISSSICHLTNESDGHTTSLYGIGFGPFIITNKHLFRRNNGTLVVQSLHGVFKVKDTTTLQQHLVDGRDMIIIRMPKDFPPFPQKLKFREPQREERICLVTTNFQTKSMSSMVSDTSCTFPSGDGIFWKHWIQTKDGQCGSPLVSTRDGFIVGIHSASNFTNTYNYFTSVPKNFMELLTNQEAQQWVSGWRLNADSVLWGGHKVFMVKPEEPFQPVKEATQL [N177Y] | – | 0.0685 | – | – | – | – | – |
| MGESLFKGPRDYNPISSSICHLTNESDGHTTSLYGIGFGPFIITNKHLFRRNNGTLVVQSLHGVFKVKDTTTLQQHLVDGRDMIIIRMPKDFPPFPQKLKFREPQREERICLVTTNFQTKSMSSMVSDTSCTFPSGDGIFWKHWIQTKDGQCGSPLVSTRDGFIVGIHSASNFTNTNNYFTSVPKNFMELLTNQEAQQWVSGWRLNADSVLWGGAKVFMVKPEEPFQPVKEATQL [H215A] | – | 0.0805 | – | 0.0658 | – | – | 0.0672 |
| MGESLFKGPRDYNPISSSICHLTNESDGHTTSLYGIGFGPFIITNKHLFRRNNGTLVVQSLHGVFKVKDTTTLQQHLVDGRDMIIIRMPKDFPPFWQKLKFREPQREERICLVTTNFQTKSMSSMVSDTSCTFPSGDGIFWKHWIQTKDGQCGSPLVSTRDGFIVGIHSASNFTNTNNYFTSVPKNFMELLTNQEAQQWVSGWRLNADSVLWGGHKVFMVKPEEPFQPVKEATQL [P96W] | – | 0.0852 | 0.0604 | 0.084 | – | – | – |
